Among the data in the RNAGym collection of RNA variant scans (doi:10.7554/elife.90254) are self-cleavage values, retold here.

The labels stand for the following.
B1: LINE1-full (parent)
chain: UACGUAGGUGGUUUUCCCCUGAUAGUGCUAAGGGGGCCUGGAAGUUUGGACUGGGCAGAGCUCAACACAGCGUGGCAAAGUGGCUGUGGCUAGACUGCCUCUCUGGAUUCCUCGUCACUCAGCAGGGCAUCUCUGAGAGAAAUGCC

Read counts are not given, so values of variants with three or more changes are uncertain.

This data set covers variants of B1. The data set can be described thus: self-cleavage, relative activity (ratio to wild type); higher = more cleavage; in vitro, sequencing; the parent is a self-cleaving ribozyme.
As to U9A U62G A65G A142G, the self-cleavage came to 0.

On to U13A A31G U109C, for which the self-cleavage was 0.78.

For A43G G126A A142G, the self-cleavage was found to be 1.33.

Consider A64G U100C C131A, for which the self-cleavage was found to be 0.37.

In the case of G21A A77G A129G, the self-cleavage was 2.51.

Turning to U13C A67G G114A, the self-cleavage amounted to 0.62.

Regarding A6G U29C A79G A141G, the self-cleavage was 1.53.

As to A30G U52A U115C, the self-cleavage came out at 0.86.

Turning to U29C A129G U143C, the self-cleavage came out at 0.92.

On to A57G U81C U119A, for which the self-cleavage amounted to 1.41.

For U39C G49A A64U, the self-cleavage amounted to 0.39.

Regarding U23C U104C U119C G122A, the self-cleavage amounted to 2.21.

Consider A65G U87A U100C, for which the self-cleavage was 0.07.

C37G A69U U73A U91A U112C: the self-cleavage came out at 0.02.

As to G4A U45C U85A C98A, the self-cleavage was found to be 0.

In the case of U23A U102C A121U A138U, the self-cleavage was 1.3.

With U5C A31U A43G, the self-cleavage worked out at 1.1.

Turning to A69U U73G A77C U115C, the self-cleavage turned out to be 0.

With U12A A79G U96C U119C G126A, the self-cleavage came out at 0.

For the variant G32A A43U A124G, the self-cleavage stood at 1.25.

U87A A124G U134A: the self-cleavage was found to be 0.06.

For the variant U13C U134C A141G, the self-cleavage is 2.17.

Regarding U47C U62C U73G U130C, the self-cleavage amounted to 0.

U108C U119C A142G: the self-cleavage was 0.51.

For U39G G75U A94G U104A U130A, the self-cleavage was determined as 0.16.

Regarding U9A U39A A59G, the self-cleavage came out at 0.14.

On to U45A A121G U143C, for which the self-cleavage was 1.51.

As to U104C U108C A141G, the self-cleavage was 1.15.

As for A77U A107G A141G, the self-cleavage worked out at 1.02.

As for U26G A42G G144A, the self-cleavage is 1.6.

As for G36A U52C U104C, the self-cleavage turned out to be 0.98.

On to A121G A129G A142G, for which the self-cleavage was found to be 1.84.

As to U39A A50G A59U G97A, the self-cleavage worked out at 0.07.

Regarding U20C A30U A117U, the self-cleavage turned out to be 0.91.

As to G80A A138G A141G, the self-cleavage stood at 1.95.

U20A G114A U115C U143C: the self-cleavage came out at 1.75.

Turning to U45A A57G U81C, the self-cleavage came out at 1.66.

As to U87A U96C A141G, the self-cleavage amounted to 0.01.

As to U104C A129U U143A, the self-cleavage is 2.07.

In the case of U29G A42G A107U, the self-cleavage was 1.45.

As to C68A U73C A92G U109C U112A A138G, the self-cleavage turned out to be 0.

With A24U U47C U62C C84U U85A A107G A124U A141G, the self-cleavage was 0.02.

On to A57G A59G U115A A138G, for which the self-cleavage was determined as 0.

On to A57C U62A C103A, for which the self-cleavage was 0.11.

With A2G U5C U15C A43G A57G, the self-cleavage was determined as 0.48.

In the case of A22U A50G A142G U143G, the self-cleavage is 0.64.

Consider A50G U108C C123U, for which the self-cleavage was found to be 0.85.

As for A42U A57U U143A, the self-cleavage worked out at 0.08.

As for C17U C37U U102C, the self-cleavage is 1.63.

Turning to U9C C17U G34A A57G A65C U85C U132C, the self-cleavage came out at 1.31.

With U1A U115A U134C, the self-cleavage is 0.64.

Regarding U9A U12G U14C U39C A140U, the self-cleavage worked out at 1.18.

With U20C G32U A43G C99A A107G U119A, the self-cleavage came out at 0.67.

On to A31U G74A A117G U119C U130C, for which the self-cleavage was 1.07.

As to U29C U132A U134A, the self-cleavage stood at 1.3.

U47A A78G U132C A138G: the self-cleavage is 1.75.

Turning to U1G G36C U100C, the self-cleavage is 0.66.

As for U47A U108C A124G, the self-cleavage amounted to 2.54.

For A42G A43G A92U U108C, the self-cleavage was 1.02.

As for U20A G27U U73A A142G, the self-cleavage worked out at 1.84.

C28A U47C A59G: the self-cleavage is 0.11.

A79G C103A U119A: the self-cleavage was found to be 1.69.

A64U A79U U85G: the self-cleavage stood at 0.1.

Take G25C A79G U85C A142G: the self-cleavage was 0.

For U9C A69U A79G U85C, the self-cleavage came to 0.

Take U26A U39C U85C: the self-cleavage came to 0.11.

For the variant U13G U104C G126A, the self-cleavage turned out to be 1.23.

For U46C U87A U109A C123A, the self-cleavage was 0.1.

Regarding U9C G10U U100C U104C A129G, the self-cleavage worked out at 1.84.

Regarding A42G U134C A136U, the self-cleavage was determined as 2.3.

For the variant U9A U15C U112C, the self-cleavage came to 0.69.

For the variant U5C G40A G97A A129G, the self-cleavage is 0.23.

For the variant G83A U102C A141G, the self-cleavage stood at 0.77.

As to U15C A107G U108C A138U, the self-cleavage worked out at 0.85.

On to A50U U52A U73A A77G, for which the self-cleavage was found to be 2.12.

Regarding A31U U100C A142G, the self-cleavage is 1.31.

With U14C U26C A79G, the self-cleavage is 1.2.

Take A6G U85A A124G A138C: the self-cleavage came out at 0.29.

For the variant U47C U87C U96A U109C, the self-cleavage turned out to be 0.

A42U A79U C111U: the self-cleavage was 1.21.

Regarding U62C A77C U96C, the self-cleavage turned out to be 0.15.

As to A57G U85C U130A, the self-cleavage came to 0.

Turning to G35A U109G U112C, the self-cleavage was 0.26.

For A59C U112A U132C, the self-cleavage was 0.95.

For the variant A2G A79C A140G, the self-cleavage came out at 1.19.

For U1G A2G A67G U96C, the self-cleavage was 0.

As for U1C U104A U143A, the self-cleavage stood at 0.46.

For the variant U12C U52A G58C, the self-cleavage was 0.02.

For the variant U9C G21U U52A, the self-cleavage was determined as 1.61.

Regarding U62A A117G U143C, the self-cleavage worked out at 0.

For the variant A24G U91A U134C, the self-cleavage came out at 1.41.

As to C17A U20C A31U G33A, the self-cleavage turned out to be 0.86.

In the case of A2G G49A A124G G135A C146U, the self-cleavage was determined as 0.16.

For the variant U20A U29A A67U U143C, the self-cleavage was 0.03.

In the case of U119G A129G A141G, the self-cleavage is 0.92.

For the variant G53A U85A U91C, the self-cleavage worked out at 0.1.

In the case of A6G U9A U15C U73A U96C A107G A142G, the self-cleavage came to 0.

On to A24G U45A U47C, for which the self-cleavage was 0.8.

As for G88C A107G A138U A142G, the self-cleavage is 0.

Regarding A43G G80U G114A A142G, the self-cleavage came to 1.55.

For the variant U1C G32A A42G A57G A69U, the self-cleavage came out at 0.03.

For A42G U46C U47C, the self-cleavage was found to be 1.04.

As for U9C U62A G72C, the self-cleavage was 0.09.

For U115G A124U U132C, the self-cleavage is 2.45.

Consider U15C U100C U119C, for which the self-cleavage was found to be 2.63.

Regarding G8A U23C U109A, the self-cleavage turned out to be 1.97.

Turning to C16U A42G U130A A140G, the self-cleavage came out at 2.51.

As for U39A U45C U62C, the self-cleavage worked out at 0.06.

Regarding U20C C51U U96G U102C, the self-cleavage came out at 0.

For the variant A77G U132C A142G, the self-cleavage was found to be 2.15.

Turning to U13C A65G U73C, the self-cleavage was 0.

As for U46C A77G U109A G126A, the self-cleavage was 2.15.

Turning to U47C U81C A136U, the self-cleavage was 1.72.

In the case of C99U U100C U102C, the self-cleavage is 0.77.

As for U39A U46C U102C A121G A129U, the self-cleavage turned out to be 0.51.

For the variant U13C U100A A138G, the self-cleavage stood at 0.62.

In the case of U29C U45A A141G A142G, the self-cleavage came out at 1.59.

Regarding U47A G80U C110U A138G A142G, the self-cleavage amounted to 1.96.

U9A A77G A79C: the self-cleavage turned out to be 1.36.

As to G35C U52C A77U A124G A138G, the self-cleavage was found to be 0.19.

As to U9C G48C C71U, the self-cleavage worked out at 0.7.

In the case of U14C C37U G74A U112C U119A, the self-cleavage amounted to 0.91.

As to A42G U45A A69G, the self-cleavage worked out at 0.32.

As for U39A A69G U109A, the self-cleavage was determined as 0.43.

Turning to A2G U13C A65G, the self-cleavage amounted to 0.

On to U9A U15A A43G U47A U52G U62C U73C A141G, for which the self-cleavage was 0.

For the variant A31G G54A A92G U134A, the self-cleavage was 0.08.

With C19A U47C A50G A107U U132C, the self-cleavage was found to be 1.31.

In the case of U5C A22U A65G U96A G125U U134C, the self-cleavage came to 0.02.

On to C19U U39G U100C A121U, for which the self-cleavage amounted to 1.25.

As to A6U G8C G74A A107G A142G, the self-cleavage was determined as 1.41.

As to U9A A78G C101U U104C, the self-cleavage came out at 1.15.

For the variant U12C G32A A50G U96C A121U, the self-cleavage was 0.

For U39A U52C A69U A94G, the self-cleavage came out at 0.

In the case of A2G U12C A107U, the self-cleavage turned out to be 0.65.

As to U1C C56G A65U, the self-cleavage was determined as 0.08.

On to U14C U26A A57U A136G A142G, for which the self-cleavage stood at 0.24.

Take C18U U96C C101U: the self-cleavage was 0.17.

For A79G U85A U104A A138G, the self-cleavage worked out at 0.

In the case of U26A C76A A141G, the self-cleavage turned out to be 1.53.

As for C17U A107U G137A, the self-cleavage is 0.71.

Turning to U14C A22U U62C, the self-cleavage came to 0.25.

As to G21U G32A U39A, the self-cleavage is 1.02.

As for U15C U108C A141U, the self-cleavage worked out at 1.64.

As to U9A G49A U87A A129U, the self-cleavage is 0.05.

Regarding U13C U29A A50G, the self-cleavage is 0.68.

Regarding U130G A138G U143C, the self-cleavage came out at 1.31.

As for A67U A138G U143C, the self-cleavage turned out to be 0.2.

Consider U12G A22G U119C A142G, for which the self-cleavage stood at 0.95.

Take U14C U39C U52A U134C: the self-cleavage was 2.09.

Regarding U12G C19U A124G, the self-cleavage is 0.16.

As to G34A C128U A129G, the self-cleavage is 1.22.

For C17U A42G A124G, the self-cleavage is 1.25.

Turning to G35A C116U A117U U119C U130A, the self-cleavage is 1.41.

Turning to U26A G34U A78G, the self-cleavage worked out at 0.51.

Take U14C G74U A142U U143C: the self-cleavage is 0.85.

On to U9C G48A U134C, for which the self-cleavage amounted to 1.25.

With U13C A57U A94U A138U, the self-cleavage was determined as 0.18.

In the case of U39A A65U U132C U143C, the self-cleavage was found to be 0.08.

C28U A42G G82A: the self-cleavage worked out at 1.36.

For the variant U12C G32A U47A G82A U100C A142G, the self-cleavage came out at 1.21.

In the case of U1C C90G U96C, the self-cleavage was 0.1.

For the variant A22G A42G A142G, the self-cleavage was 1.36.

On to U13C U26C A31G U73A U108C G144A, for which the self-cleavage was determined as 0.57.

On to A31U G53A U62C G127A A136G, for which the self-cleavage is 0.04.

In the case of U13C U23C G32A, the self-cleavage is 1.78.

With U26G G27A A67U U87A, the self-cleavage is 1.09.
